# Test results published in the supplement of paper PMC8728848.
# The other results are listed elsewhere or left out.
# B1: PX14367A-bth-493-35-493 (Bacteroides thetaiotaomicron) (protein)
# chain: VSSDQVAVAGNAERLFNGAWYNLFEYGTTYANIGYRALQCQDDMMASDVVSRPKYGFNSSYQFNDVAIPSDGRTSFAWYLIYKTIDNCNTAISIKGDSEELRQAQGQALALRAFCYLHLVQHYQFTYLKDKDAPCVPIYTEPTTSGTKPKGKSTVAQVYQQIFDDLNLAQDYLTNYVRKGDGQKFKPNTDVVNGLMARAYLLTGQWGEAAKAAEAARKGYSLMTTTAEYEGFNNISNKEWIWGSPQTLSQSDASYNFYYLDATYVGAYSSFMADPHLMDTFVKGDIRLPLFQWMREGYLGYKKFHMRSDDTADLVLMRSAEMYLIEAEAKVRDGVALDQAVAPLNTLRTARGVGNYDVTGKTKEQVIDEILMERRRELWGEGFGITDVLRNQKAVERMALSEDMQKTEVDCWQEGGSFAKRNPLGHWFLNFPDGKAFSANSSYYLYAIPEKEINANPNL
# Key:
# Assay in all cases: glycan array binding signal (z-score within array); higher = stronger binding
# Settings in all cases: glycan notation: IUPAC condensed, linker removed
# [1] = molecular target: Gal(b1-3)[Fuc(a1-4)]GlcNAc(b1-6)GalNAc
# Outline: (§1)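 Glycan array data came from 3228 arrays in the Consortium for Functional Glycomics database, and only arrays with an available protein sequence were kept. Glycan names were put into IUPAC-condensed notation, and columns mapping to the same glycan were averaged. The binding signal is a within-array Z-score, averaged across arrays of one protein sequence run at different concentrations or buffers and across linkers. A negative Z-score can be read as non-binding.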
# [2] = molecular target: Gal(b1-3)[GlcNAc(b1-6)]GalNAc
# Outline: as §1
# [3] = molecular target: Gal(b1-3)[Neu5Ac(a2-6)]GalNAc
# Outline: as §1
# [4] = molecular target: Gal(b1-3)[Neu5Ac(a2-6)]GlcNAc(b1-4)Gal(b1-4)Glc
# Outline: as §1
# [5] = molecular target: Gal(b1-3)[Neu5Ac(b2-6)]GalNAc
# Outline: as §1
# Gal(b1-4)Gal = molecular target: Gal(b1-4)Gal
# Outline: as §1
# [6] = molecular target: Gal(b1-4)GalNAc(a1-3)[Fuc(a1-2)]Gal(b1-4)GlcNAc
# Outline: as §1
# [7] = molecular target: Gal(b1-4)GalNAc(b1-3)[Fuc(a1-2)]Gal(b1-4)GlcNAc
# Outline: as §1
# Gal(b1-4)Glc = molecular target: Gal(b1-4)Glc
# Outline: as §1
# Gal(b1-4)Glc6S = molecular target: Gal(b1-4)Glc6S
# Outline: as §1
# Gal(b1-4)GlcNAc = molecular target: Gal(b1-4)GlcNAc
# Outline: as §1
# [8] = molecular target: Gal(b1-4)GlcNAc(a1-6)Gal(b1-4)GlcNAc
# Outline: as §1
# Gal(b1-4)GlcNAc(b1-2)Man = molecular target: Gal(b1-4)GlcNAc(b1-2)Man
# Outline: as §1
# [9] = molecular target: Gal(b1-4)GlcNAc(b1-2)Man(a1-3)Man(b1-4)GlcNAc(b1-4)GlcNAc
# Outline: as §1
# [10] = molecular target: Gal(b1-4)GlcNAc(b1-2)Man(a1-3)[Gal(b1-4)GlcNAc(b1-2)Man(a1-6)]Man(b1-4)GlcNAc(b1-4)GlcNAc
# Outline: as §1
# [11] = molecular target: Gal(b1-4)GlcNAc(b1-2)Man(a1-3)[Gal(b1-4)GlcNAc(b1-2)Man(a1-6)]Man(b1-4)GlcNAc(b1-4)[Fuc(a1-6)]GlcNAc
# Outline: as §1
# [12] = molecular target: Gal(b1-4)GlcNAc(b1-2)Man(a1-3)[Gal(b1-4)GlcNAc(b1-2)Man(a1-6)][Gal(b1-4)GlcNAc(b1-4)]Man(b1-4)GlcNAc(b1-4)[Fuc(a1-6)]GlcNAc
# Outline: as §1
# [13] = molecular target: Gal(b1-4)GlcNAc(b1-2)Man(a1-3)[Gal(b1-4)GlcNAc(b1-2)Man(a1-6)][GlcNAc(b1-4)]Man(b1-4)GlcNAc(b1-4)[Fuc(a1-6)]GlcNAc
# Outline: as §1
# [14] = molecular target: Gal(b1-4)GlcNAc(b1-2)Man(a1-3)[GlcNAc(b1-2)Man(a1-6)]Man(b1-4)GlcNAc(b1-4)GlcNAc
# Outline: as §1
# [15] = molecular target: Gal(b1-4)GlcNAc(b1-2)Man(a1-3)[GlcNAc(b1-4)][Gal(b1-4)GlcNAc(b1-2)Man(a1-6)]Man(b1-4)GlcNAc(b1-4)GlcNAc
# Outline: as §1
# [16] = molecular target: Gal(b1-4)GlcNAc(b1-2)Man(a1-3)[Man(a1-6)]Man(b1-4)GlcNAc(b1-4)GlcNAc
# Outline: as §1
# [17] = molecular target: Gal(b1-4)GlcNAc(b1-2)Man(a1-6)Man(b1-4)GlcNAc(b1-4)GlcNAc
# Outline: as §1
# [18] = molecular target: Gal(b1-4)GlcNAc(b1-2)Man(a1-6)[GlcNAc(b1-2)Man(a1-3)]Man(b1-4)GlcNAc(b1-4)GlcNAc
# Outline: as §1
# [19] = molecular target: Gal(b1-4)GlcNAc(b1-2)Man(a1-6)[Man(a1-3)]Man(b1-4)GlcNAc(b1-4)GlcNAc
# Outline: as §1
# [20] = molecular target: Gal(b1-4)GlcNAc(b1-2)[Gal(b1-4)GlcNAc(b1-4)]Man(a1-3)[Gal(b1-4)GlcNAc(b1-2)Man(a1-6)]Man(b1-4)GlcNAc(b1-4)GlcNAc
# Outline: as §1
# [21] = molecular target: Gal(b1-4)GlcNAc(b1-2)[Gal(b1-4)GlcNAc(b1-4)]Man(a1-3)[Gal(b1-4)GlcNAc(b1-2)[Gal(b1-4)GlcNAc(b1-6)]Man(a1-6)]Man(b1-4)GlcNAc(b1-4)GlcNAc
# Outline: as §1
# [22] = molecular target: Gal(b1-4)GlcNAc(b1-2)[Gal(b1-4)GlcNAc(b1-4)]Man(a1-3)[GlcNAc(b1-4)][Gal(b1-4)GlcNAc(b1-2)Man(a1-6)]Man(b1-4)GlcNAc(b1-4)GlcNAc
# Outline: as §1
# [23] = molecular target: Gal(b1-4)GlcNAc(b1-2)[Gal(b1-4)GlcNAc(b1-4)]Man(a1-3)[GlcNAc(b1-4)][Gal(b1-4)GlcNAc(b1-2)[Gal(b1-4)GlcNAc(b1-6)]Man(a1-6)]Man(b1-4)GlcNAc(b1-4)GlcNAc
# Outline: as §1
# [24] = molecular target: Gal(b1-4)GlcNAc(b1-2)[Gal(b1-4)GlcNAc(b1-6)]Man(a1-6)[Gal(b1-4)GlcNAc(b1-2)Man(a1-3)]Man(b1-4)GlcNAc(b1-4)GlcNAc
# Outline: as §1
# [25] = molecular target: Gal(b1-4)GlcNAc(b1-2)[Gal(b1-4)GlcNAc(b1-6)]Man(a1-6)[Gal(b1-4)GlcNAc(b1-2)Man(a1-3)]Man(b1-4)GlcNAc(b1-4)[Fuc(a1-6)]GlcNAc
# Outline: as §1
# [26] = molecular target: Gal(b1-4)GlcNAc(b1-2)[Gal(b1-4)GlcNAc(b1-6)]Man(a1-6)[GlcNAc(b1-4)][Gal(b1-4)GlcNAc(b1-2)Man(a1-3)]Man(b1-4)GlcNAc(b1-4)GlcNAc
# Outline: as §1
# [27] = molecular target: Gal(b1-4)GlcNAc(b1-2)[Gal(b1-4)GlcNAc(b1-6)]Man(a1-6)[GlcNAc(b1-4)][Gal(b1-4)GlcNAc(b1-2)[Gal(b1-4)GlcNAc(b1-4)]Man(a1-3)]Man(b1-4)GlcNAc(b1-4)[Fuc(a1-6)]GlcNAc
# Outline: as §1
# [28] = molecular target: Gal(b1-4)GlcNAc(b1-3)Gal(b1-3)GalNAc
# Outline: as §1
# [29] = molecular target: Gal(b1-4)GlcNAc(b1-3)Gal(b1-3)GlcNAc
# Outline: as §1
# [30] = molecular target: Gal(b1-4)GlcNAc(b1-3)Gal(b1-4)Glc
# Outline: as §1
# [31] = molecular target: Gal(b1-4)GlcNAc(b1-3)Gal(b1-4)GlcNAc
# Outline: as §1
# [32] = molecular target: Gal(b1-4)GlcNAc(b1-3)Gal(b1-4)GlcNAc(b1-2)Man(a1-3)[Gal(b1-4)GlcNAc(b1-3)Gal(b1-4)GlcNAc(b1-2)Man(a1-6)]Man(b1-4)GlcNAc(b1-4)GlcNAc
# Outline: as §1
# [33] = molecular target: Gal(b1-4)GlcNAc(b1-3)Gal(b1-4)GlcNAc(b1-2)Man(a1-3)[Gal(b1-4)GlcNAc(b1-3)Gal(b1-4)GlcNAc(b1-2)Man(a1-6)]Man(b1-4)GlcNAc(b1-4)[Fuc(a1-6)]GlcNAc
# Outline: as §1
binder,measurement,setting,value
B1,glycan array binding signal (z-score),[1],0.165
same,glycan array binding signal (z-score),[2],-0.406
same,glycan array binding signal (z-score),[3],-0.359
same,glycan array binding signal (z-score),[4],-0.546
same,glycan array binding signal (z-score),[5],-0.594
same,glycan array binding signal (z-score),Gal(b1-4)Gal,-0.238
same,glycan array binding signal (z-score),[6],-0.376
same,glycan array binding signal (z-score),[7],-0.38
same,glycan array binding signal (z-score),Gal(b1-4)Glc,-0.273
same,glycan array binding signal (z-score),Gal(b1-4)Glc6S,-0.087
same,glycan array binding signal (z-score),Gal(b1-4)GlcNAc,-0.381
same,glycan array binding signal (z-score),[8],0.007
same,glycan array binding signal (z-score),Gal(b1-4)GlcNAc(b1-2)Man,-0.268
same,glycan array binding signal (z-score),[9],0.428
same,glycan array binding signal (z-score),[10],1.44
same,glycan array binding signal (z-score),[11],0.125
same,glycan array binding signal (z-score),[12],-0.615
same,glycan array binding signal (z-score),[13],-0.354
same,glycan array binding signal (z-score),[14],0.386
same,glycan array binding signal (z-score),[15],-0.74
same,glycan array binding signal (z-score),[16],3.6
same,glycan array binding signal (z-score),[17],0.224
same,glycan array binding signal (z-score),[18],-0.174
same,glycan array binding signal (z-score),[19],-0.392
same,glycan array binding signal (z-score),[20],0.239
same,glycan array binding signal (z-score),[21],-0.334
same,glycan array binding signal (z-score),[22],-0.544
same,glycan array binding signal (z-score),[23],1.66
same,glycan array binding signal (z-score),[24],0.719
same,glycan array binding signal (z-score),[25],-0.167
same,glycan array binding signal (z-score),[26],0.503
same,glycan array binding signal (z-score),[27],-0.444
same,glycan array binding signal (z-score),[28],-0.505
same,glycan array binding signal (z-score),[29],-0.098
same,glycan array binding signal (z-score),[30],-0.493
same,glycan array binding signal (z-score),[31],-0.81
same,glycan array binding signal (z-score),[32],3.94
same,glycan array binding signal (z-score),[33],7.69
